These results are taken from paper PMC9911399, “Two distinct binding modes provide the RNA-binding protein RbFox with extraordinary sequence specificity”.

Where a chain is given by its changes, count along the chain named. The list shows a part of the results.

First the molecules themselves.
T1: RBFOX1 RRM (Homo sapiens, UniProt Q9NWB1 109-208)
T1 sequence: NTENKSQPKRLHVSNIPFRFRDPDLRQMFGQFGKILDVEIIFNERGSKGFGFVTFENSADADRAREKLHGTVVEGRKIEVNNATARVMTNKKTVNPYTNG

B1: GAAGGGA (DNA:RNA)
RNA: GGGAGACCGGAAUUCAGAUUGUCCGAAGGGAUUAAAUCCCGUCGUAGCCACCA
DNA 1: CAATCTGAATTCCGGTCTCCC
DNA 2: TGGTGGCTACGACGGGATT
B2: CAGGUGU (DNA:RNA)
RNA: B1 RNA with G25C, A27G, G29U, A31U
DNA 1: CAATCTGAATTCCGGTCTCCC
DNA 2: TGGTGGCTACGACGGGATT
B3: AAACUUC (DNA:RNA)
RNA: B1 RNA with G25A, G28C, G29U, G30U, A31C
DNA 1: CAATCTGAATTCCGGTCTCCC
DNA 2: TGGTGGCTACGACGGGATT
B4: CCGGGCU (DNA:RNA)
RNA: B1 RNA with G25C, A26C, A27G, G30C, A31U
DNA 1: CAATCTGAATTCCGGTCTCCC
DNA 2: TGGTGGCTACGACGGGATT
B5: UGAGAUG (DNA:RNA)
RNA: B1 RNA with G25U, A26G, G29A, G30U, A31G
DNA 1: CAATCTGAATTCCGGTCTCCC
DNA 2: TGGTGGCTACGACGGGATT
B6: GCGAUUG (DNA:RNA)
RNA: B1 RNA with A26C, A27G, G28A, G29U, G30U, A31G
DNA 1: CAATCTGAATTCCGGTCTCCC
DNA 2: TGGTGGCTACGACGGGATT
B7: ACCUUCC (DNA:RNA)
RNA: GGGAGACCGGAAUUCAGAUUGUCCACCUUCCUUAAAUCCCGUCGUAGCCACCA
DNA 1: CAATCTGAATTCCGGTCTCCC
DNA 2: TGGTGGCTACGACGGGATT
B8: UAAACUC (DNA:RNA)
RNA: B1 RNA with G25U, G28A, G29C, G30U, A31C
DNA 1: CAATCTGAATTCCGGTCTCCC
DNA 2: TGGTGGCTACGACGGGATT
B9: CAGGCCA (DNA:RNA)
RNA: B1 RNA with G25C, A27G, G29C, G30C
DNA 1: CAATCTGAATTCCGGTCTCCC
DNA 2: TGGTGGCTACGACGGGATT
B10: CAUUGCG (DNA:RNA)
RNA: B7 RNA with A25C, C26A, C27U, U29G, C31G
DNA 1: CAATCTGAATTCCGGTCTCCC
DNA 2: TGGTGGCTACGACGGGATT
B11: UGAGAAA (DNA:RNA)
RNA: B1 RNA with G25U, A26G, G29A, G30A
DNA 1: CAATCTGAATTCCGGTCTCCC
DNA 2: TGGTGGCTACGACGGGATT
B12: GUUGCAC (DNA:RNA)
RNA: B1 RNA with A26U, A27U, G29C, G30A, A31C
DNA 1: CAATCTGAATTCCGGTCTCCC
DNA 2: TGGTGGCTACGACGGGATT
B13: UCUAUAG (DNA:RNA)
RNA: B7 RNA with A25U, C27U, U28A, C30A, C31G
DNA 1: CAATCTGAATTCCGGTCTCCC
DNA 2: TGGTGGCTACGACGGGATT
B14: GUAUCCU (DNA:RNA)
RNA: B7 RNA with A25G, C26U, C27A, U29C, C31U
DNA 1: CAATCTGAATTCCGGTCTCCC
DNA 2: TGGTGGCTACGACGGGATT
B15: UCUAUAU (DNA:RNA)
RNA: B7 RNA with A25U, C27U, U28A, C30A, C31U
DNA 1: CAATCTGAATTCCGGTCTCCC
DNA 2: TGGTGGCTACGACGGGATT
B16: ACCUCAU (DNA:RNA)
RNA: B7 RNA with U29C, C30A, C31U
DNA 1: CAATCTGAATTCCGGTCTCCC
DNA 2: TGGTGGCTACGACGGGATT
B17: AACUGCC (DNA:RNA)
RNA: B7 RNA with C26A, U29G
DNA 1: CAATCTGAATTCCGGTCTCCC
DNA 2: TGGTGGCTACGACGGGATT
B18: UUGUCCU (DNA:RNA)
RNA: B7 RNA with A25U, C26U, C27G, U29C, C31U
DNA 1: CAATCTGAATTCCGGTCTCCC
DNA 2: TGGTGGCTACGACGGGATT
B19: AGCGCCG (DNA:RNA)
RNA: B7 RNA with C26G, U28G, U29C, C31G
DNA 1: CAATCTGAATTCCGGTCTCCC
DNA 2: TGGTGGCTACGACGGGATT
B20: GAGUAGA (DNA:RNA)
RNA: B1 RNA with A27G, G28U, G29A
DNA 1: CAATCTGAATTCCGGTCTCCC
DNA 2: TGGTGGCTACGACGGGATT

The target in the assay is T1, RBFOX1 RRM. The assay can be described thus: EMSA; HiTS-Eq, 1 nM pool, 10 min; buffer printed only for the single-RNA assays: 10 mM Tris pH 7.5, 150 mM NaCl, 3.4 mM EDTA, 0.001% NP-40, 30 C. The settings on record: tags: His6 N-terminal (pET28a); label: 5' 32P. An outline of the steps:
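Purified wild-type or mutant RbFox RRM at increasing concentrations was equilibrated with 1 nM of 5′-radiolabelled RNA carrying 7 randomized nucleotides for 10 min in 50 µL. Unbound RNA was separated by 8% native PAGE and sequenced. Relative association constants came from read-count changes of each RNA species compared with the control reaction, normalised to the cognate motif.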
On to B1, for which the binding signal is 0.00631 KA relative to UGCAUGU. The result for B2 reads 0.0168 KA relative to UGCAUGU; that for B3, 0.00194 KA relative to UGCAUGU. The result for B4 reads 0.00883 KA relative to UGCAUGU. To B5 belongs 0.0273 KA relative to UGCAUGU; to B6, 0.0164 KA relative to UGCAUGU; to B7, 0.00208 KA relative to UGCAUGU.

Regarding B8, the binding signal is 0.00452 KA relative to UGCAUGU.

Take B9: the binding signal is 0.00956 KA relative to UGCAUGU. The result for B10 reads 0.0103 KA relative to UGCAUGU. The result for B11 reads 0.016 KA relative to UGCAUGU; that for B12, 0.0203 KA relative to UGCAUGU; that for B13, 0.00762 KA relative to UGCAUGU. The result for B14 reads 0.00994 KA relative to UGCAUGU; that for B15, 0.00154 KA relative to UGCAUGU; that for B16, 0.00153 KA relative to UGCAUGU. Turning to B17, the binding signal was 0.00713 KA relative to UGCAUGU. The result for B18 reads 0.0126 KA relative to UGCAUGU.

On to B19, for which the binding signal was 0.00843 KA relative to UGCAUGU. The result for B20 reads 0.0139 KA relative to UGCAUGU.
